The other results are listed elsewhere or left out. Binding of human transcription factors and regulators to the viral nucleoprotein by AlphaScreen, crude cell-free proteins, amounts not normalised, one pass. Fold of the Venus control; higher = more signal. No active / inactive call. Single-pass screen; sequences are the whole Swiss-Prot entries looked up by name.

B1: MYPOP, Q86VE0 (protein)
chain: MASAAAGEAEETTRLRKPRFSFEENQILIREVRAHYPQLYGAQSRRVSVAERRRVWDGIAAKINGITSWKRTGQEVQKRWNDFKRRTKEKLARVPHSTQGAGPAAEDAFSAEEETIFAILGPGVAAPGAGAGAEEPPAAPSSQPPPPSACPQRYVLSEDRREDRRADTSAHSKAGSSSPEPWARPSCTPQEGGCPRPKERESPPPSALQPVQLPRLALSPPPPAPPLPPPPPLAQVAPSPPSPPPPPRPPPTLSASDPSLDFLRAQQETANAIRELAGTLRQGLAKLSEALSALLPLLPGTPVDSLPPPLPPPPPPPPPPRPVLPPPAPKVEITPEPVSVVAAVVDGAVVAARGVIIAPRSEEGAPRPPPAPLPPHDSPPHKRRKGFPTRKRRGRWKSP
B2: TRERF1, Q96PN7 (protein)
chain: MGDQQLYKTNHVAHGSENLFYQQPPLGVHSGLNHNYGNAVTGGGMDAPQASPISPHFPQDTRDGLGLPVGSKNLGQMDTSRQGGWGSHAGPGNHVQLRGNLANSNMMWGAPAQAEPTDGYQYTYSQASEIRTQKLTSGVLHKLDSFTQVFANQNLRIQVNNMAQVLHTQSAVMDGAPDSALRQLLSQKPMEPPAPAIPSRYQQVPQQPHPGFTGGLSKPALQVGQHPTQGHLYYDYQQPLAQVPVQGGQPLQAPQMLSQHMQQMQQHQYYPPQQQQQAGQQRISMQEIQTQPQQIRPSQPQPPPQQQQPQQLQLQQRQGSMQIPQYYQPQPMMQHLQEQQQQQMHLQPPSYHRDPHQYTPEQAHTVQLIPLGSMSQYYYQEPQQPYSHPLYQQSHLSQHQQREDSQLKTYSSDRQAQAMLSSHGDLGPPDTGMGDPASSDLTRVSSTLPHRPLLSPSGIHLNNMGPQHQQLSPSAMWPQMHLPDGRAQPGSPESSGQPKGAFGEQFDAKNKLTCSICLKEFKNLPALNGHMRSHGGMRASPNLKQEEGEKVLPPQPQPPLPPPPPPPPPPQLPPEAESLTPMVMPVSVPVKLLPPKPSSQGFTNSTVAAPSARDKPASSMSDDEMPVLEIPRKHQPSVPKAEEPLKTVQEKKKFRHRPEPLFIPPPPSYNPNPAASYSGATLYQSQLRSPRVLGDHLLLDPTHELPPYTPPPMLSPVRQGSGLFSNVLISGHGPGAHPQLPLTPLTPTPRVLLCRSNSIDGSNVTVTPGPGEQTVDVEPRINIGLRFQAEIPELQDISALAQDTHKATLVWKPWPELENHDLQQRVENLLNLCCSSALPGGGTNSEFALHSLFEAKGDVMVALEMLLLRKPVRLKCHPLANYHYAGSDKWTSLERKLFNKALATYSKDFIFVQKMVKSKTVAQCVEYYYTWKKIMRLGRKHRTRLAEIIDDCVTSEEEEELEEEEEEDPEEDRKSTKEEESEVPKSPEPPPVPVLAPTEGPPLQALGQPSGSFICEMPNCGAVFSSRQALNGHARIHGGTNQVTKARGAIPSGKQKPGGTQSGYCSVKSSPSHSTTSGETDPTTIFPCKECGKVFFKIKSRNAHMKTHRQQEEQQRQKAQKAAFAAEMAATIERTTGPVGAPGLLPLDQLSLIKPIKDVDILDDDVVQQLGGVMEEAEVVDTDLLLDDQDSVLLQGDAEL
B3: PYDC1, Q8WXC3 (protein)
chain: MGTKREAILKVLENLTPEELKKFKMKLGTVPLREGFERIPRGALGQLDIVDLTDKLVASYYEDYAAELVVAVLRDMRMLEEAARLQRAA
B4: TCF7, P36402 (protein)
chain: MPQLDSGGGGAGGGDDLGAPDELLAFQDEGEEQDDKSRDSAAGPERDLAELKSSLVNESEGAAGGAGIPGVPGAGAGARGEAEALGREHAAQRLFPDKLPEPLEDGLKAPECTSGMYKETVYSAFNLLMHYPPPSGAGQHPQPQPPLHKANQPPHGVPQLSLYEHFNSPHPTPAPADISQKQVHRPLQTPDLSGFYSLTSGSMGQLPHTVSWFTHPSLMLGSGVPGHPAAIPHPAIVPPSGKQELQPFDRNLKTQAESKAEKEAKKPTIKKPLNAFMLYMKEMRAKVIAECTLKESAAINQILGRRWHALSREEQAKYYELARKERQLHMQLYPGWSARDNYGKKKRRSREKHQESTTGGKRNAFGTYPEKAAAPAPFLPMTVL
B5: SPOP, O43791 (protein)
chain: MSRVPSPPPPAEMSSGPVAESWCYTQIKVVKFSYMWTINNFSFCREEMGEVIKSSTFSSGANDKLKWCLRVNPKGLDEESKDYLSLYLLLVSCPKSEVRAKFKFSILNAKGEETKAMESQRAYRFVQGKDWGFKKFIRRDFLLDEANGLLPDDKLTLFCEVSVVQDSVNISGQNTMNMVKVPECRLADELGGLWENSRFTDCCLCVAGQEFQAHKAILAARSPVFSAMFEHEMEESKKNRVEINDVEPEVFKEMMCFIYTGKAPNLDKMADDLLAAADKYALERLKVMCEDALCSNLSVENAAEILILADLHSADQLKTQAVDFINYHASDVLETSGWKSMVVSHPHLVAEAYRSLASAQCPFLGPPRKRLKQS
B6: ZBTB7B, O15156 (protein)
chain: MGSPEDDLIGIPFPDHSSELLSCLNEQRQLGHLCDLTIRTQGLEYRTHRAVLAACSHYFKKLFTEGGGGAVMGAGGSGTATGGAGAGVCELDFVGPEALGALLEFAYTATLTTSSANMPAVLQAARLLEIPCVIAACMEILQGSGLEAPSPDEDDCERARQYLEAFATATASGVPNGEDSPPQVPLPPPPPPPPRPVARRSRKPRKAFLQTKGARANHLVPEVPTVPAHPLTYEEEEVAGRVGSSGGSGPGDSYSPPTGTASPPEGPQSYEPYEGEEEEEELVYPPAYGLAQGGGPPLSPEELGSDEDAIDPDLMAYLSSLHQDNLAPGLDSQDKLVRKRRSQMPQECPVCHKIIHGAGKLPRHMRTHTGEKPFACEVCGVRFTRNDKLKIHMRKHTGERPYSCPHCPARFLHSYDLKNHMHLHTGDRPYECHLCHKAFAKEDHLQRHLKGQNCLEVRTRRRRKDDAPPHYPPPSTAAASPAGLDLSNGHLDTFRLSLARFWEQSAPTGPPVSTPGPPDDDEEEGAPTTPQAEGAMESS
B7: PTGER3, P43115 (protein)
chain: MKETRGYGGDAPFCTRLNHSYTGMWAPERSAEARGNLTRPPGSGEDCGSVSVAFPITMLLTGFVGNALAMLLVSRSYRRRESKRKKSFLLCIGWLALTDLVGQLLTTPVVIVVYLSKQRWEHIDPSGRLCTFFGLTMTVFGLSSLFIASAMAVERALAIRAPHWYASHMKTRATRAVLLGVWLAVLAFALLPVLGVGQYTVQWPGTWCFISTGRGGNGTSSSHNWGNLFFASAFAFLGLLALTVTFSCNLATIKALVSRCRAKATASQSSAQWGRITTETAIQLMGIMCVLSVCWSPLLIMMLKMIFNQTSVEHCKTHTEKQKECNFFLIAVRLASLNQILDPWVYLLLRKILLRKFCQIRYHTNNYASSSTSLPCQCSSTLMWSDHLER
B8: ZNF30, P17039 (protein)
chain: MAHKYVGLQYHGSVTFEDVAIAFSQQEWESLDSSQRGLYRDVMLENYRNLVSMGHSRSKPHVIALLEQWKEPEVTVRKDGRRWCTDLQLEDDTIGCKEMPTSENCPSFALHQKISRQKPRECQEYGKTLCQDSKPVQHERIHSSEKPNRCKECGKNFSNGHQLTIHQRLHVGEKPYKYEKCGKAFISGSAFVKHGRIHTGEKPLKCKQCGKTISGSYQLTVHKSIHTGKKPYECGECGKAFLVYGKLTRHQSTHTGEKPFGCEECGKAFSTFSYLVQHQRIHTSEKPYECKECGKAFSTSSPLAKHQRIHTGEKPYECKECGKSFTVYGQLTRHQSIHTGEKPFECKECGKAFRLSSFLHAHQRIHAEIKPYGCKECGRTFSRASYLVQHGRLHTGEKPYECKECGKAFSTGSYLVQHQRIHTGEKPYECKECGKAFISRHQLTVHQRVHTGEKPYECKECGKAFRVHVHLTQHRKIHTDVKPYECKECGKTFSRASYLVQHSRIHTGKKPYECKECGKAFSSGSYLVQHQRIHTGEKPYECNKCGKAFTVYGQLIGHQSVHTGEKPFECKECGKAFRLNSFLTEHQRVHTGEKPFKCKKCGKTFRYSSALKVHLRKHMSVIP
B9: ZNF12, P17014 (protein)
chain: MNKSLGPVSFKDVAVDFTQEEWQQLDPEQKITYRDVMLENYSNLVSVGYHIIKPDVISKLEQGEEPWIVEGEFLLQSYPDEVWQTDDLIERIQEEENKPSRQTVFIETLIEERGNVPGKTFDVETNPVPSRKIAYKNSLCDSCEKCLTSVSEYISSDGSYARMKADECSGCGKSLLHIKLEKTHPGDQAYEFNQNGEPYTLNEESLYQKIRILEKPFEYIECQKAFQKDTVFVNHMEEKPYKWNGSEIAFLQMSDLTVHQTSHMEMKPYECSECGKSFCKKSKFIIHQRTHTGEKPYECNQCGKSFCQKGTLTVHQRTHTGEKPYECNECGKNFYQKLHLIQHQRTHSGEKPYECSYCGKSFCQKTHLTQHQRTHSGERPYVCHDCGKTFSQKSALNDHQKIHTGVKLYKCSECGKCFCRKSTLTTHLRTHTGEKPYECNECGKFFSRLSYLTVHYRTHSGEKPYECNECGKTFYLNSALMRHQRVHTGEKPYECNECGKLFSQLSYLTIHHRTHSGVKPYECSECGKTFYQNSALCRHRRIHKGEKPYECYICGKFFSQMSYLTIHHRIHSGEKPYECSECGKTFCQNSALNRHQRTHTGEKAYECYECGKCFSQMSYLTIHHRIHSGEKPFECNECGKAFSRMSYLTVHYRTHSGEKPYECTECGKKFYHKSAFNSHQRIHRRGNMNVIDVGRLL

In this experiment the target is nucleoprotein N of Crimean-Congo hemorrhagic fever virus. As to the kind of experiment: AlphaScreen luminescence signal relative to Venus negative control (fold); higher = stronger binding to CCHFV N. The protocol:
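AlphaScreen binding of cell-free made, FLAG-GST-tagged human transcription factors and regulators (crude translation products) to biotinylated N protein; signal as fold of the FLAG-GST-Venus control. One pass.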
(Alpha assays give light when donor and acceptor beads are brought close together.)
B1 displayed an AlphaScreen luminescence signal of 3.4.
As for B2, the figure is 3.58; as for B3, 1.35; as for B4, 1.67.
As for B5, the figure is 2; as for B6, 18.5.
As for B7, the figure is 9.58.
The molecule B8 yielded an AlphaScreen luminescence signal of 2.56.
The molecule B9 returned an AlphaScreen luminescence signal of 2.74.

The record behind these values is the supplement of paper PMC12423691.
